# Measurements: PubChem BioAssay AID1347165 (National Center for Advancing Translational Sciences (NCATS), 2019)
# Hit rate of the full screen: of about 220,000 compounds, about 5,700 (2.6%) were called active. Inconclusive results, whose numbers are uncertain, are shown with a selection of clear calls. Calls follow the shape of the dose curve; as a rule, active = well fitted inhibition curve with a large enough effect; inconclusive = small, poorly fitted or top-dose-only effect; inactive = no such curve, though single readings can be large or run the other way. Where the call is inconclusive, the potency comes from a doubtful curve fit.
# Molecular target: Lysine-specific demethylase 5B (Homo sapiens) (UniProt Q9UGL1)
# Sequence of UniProt Q9UGL1 (Q9UGL1 whole entry, looked up): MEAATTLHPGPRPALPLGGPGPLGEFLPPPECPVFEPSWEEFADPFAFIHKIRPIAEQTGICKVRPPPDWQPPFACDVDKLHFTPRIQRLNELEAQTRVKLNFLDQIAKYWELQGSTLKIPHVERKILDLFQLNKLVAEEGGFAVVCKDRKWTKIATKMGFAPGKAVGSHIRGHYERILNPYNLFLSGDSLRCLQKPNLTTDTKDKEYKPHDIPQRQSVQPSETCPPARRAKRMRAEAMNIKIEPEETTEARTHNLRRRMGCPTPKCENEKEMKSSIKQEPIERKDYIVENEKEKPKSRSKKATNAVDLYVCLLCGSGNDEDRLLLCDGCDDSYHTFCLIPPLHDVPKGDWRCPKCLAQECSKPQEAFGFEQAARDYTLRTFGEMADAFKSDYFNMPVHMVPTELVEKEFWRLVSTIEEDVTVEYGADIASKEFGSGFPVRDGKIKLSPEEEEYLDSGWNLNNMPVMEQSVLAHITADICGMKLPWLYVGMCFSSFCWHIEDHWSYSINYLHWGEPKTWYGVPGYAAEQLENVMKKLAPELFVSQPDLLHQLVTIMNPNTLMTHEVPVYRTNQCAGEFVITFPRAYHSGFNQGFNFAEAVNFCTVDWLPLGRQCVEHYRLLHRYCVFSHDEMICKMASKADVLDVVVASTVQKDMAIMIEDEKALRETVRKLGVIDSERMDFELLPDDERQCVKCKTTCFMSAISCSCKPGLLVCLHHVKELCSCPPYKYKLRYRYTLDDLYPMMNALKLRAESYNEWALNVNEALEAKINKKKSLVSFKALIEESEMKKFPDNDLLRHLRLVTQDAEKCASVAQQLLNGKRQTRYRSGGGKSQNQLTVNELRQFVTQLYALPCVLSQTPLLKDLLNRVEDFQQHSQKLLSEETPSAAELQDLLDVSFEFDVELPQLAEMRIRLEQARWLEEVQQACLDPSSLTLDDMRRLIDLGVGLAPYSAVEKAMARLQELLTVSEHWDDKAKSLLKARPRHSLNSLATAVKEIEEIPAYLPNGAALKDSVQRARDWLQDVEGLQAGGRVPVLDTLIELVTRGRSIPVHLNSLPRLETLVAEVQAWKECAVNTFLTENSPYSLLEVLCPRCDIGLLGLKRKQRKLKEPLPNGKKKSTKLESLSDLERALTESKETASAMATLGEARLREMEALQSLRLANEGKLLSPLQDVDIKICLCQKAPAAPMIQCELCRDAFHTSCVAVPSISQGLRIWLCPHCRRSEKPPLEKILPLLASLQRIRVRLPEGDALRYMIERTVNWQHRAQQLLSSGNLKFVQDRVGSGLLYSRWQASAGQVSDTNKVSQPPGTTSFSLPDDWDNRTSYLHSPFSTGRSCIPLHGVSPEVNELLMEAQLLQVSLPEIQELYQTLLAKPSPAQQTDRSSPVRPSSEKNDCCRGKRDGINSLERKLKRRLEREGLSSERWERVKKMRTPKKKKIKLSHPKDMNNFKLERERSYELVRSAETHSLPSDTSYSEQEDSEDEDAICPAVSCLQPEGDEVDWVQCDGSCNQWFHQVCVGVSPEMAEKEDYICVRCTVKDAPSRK
# Assay: Primary screen for KDM5B Histone Demethylases FDH-coupled qHTS; also: nearly all actives have a fitted effect of over 70% in size; as to activity change, negative = inhibition: 0% is about no effect
# Details: FDH-coupled NADH fluorescence (FDH is formaldehyde dehydrogenase); activity change, negative = inhibition: at 57.7 µM (top of the series) unless noted
# How it was run: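 qHTS format, multiple compound concentrations. Buffer 50 mM HEPES pH 7.5/0.01% Tween-20; 200 nM KDM5BΔAP final; 10 min compound preincubation; substrate-mix levels 12.5 µM peptide, 25 µM α-KG, 0.25 mM NAD⁺; 30 min RT; ΔRFU.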
# Potency is read from the fitted curve at half-maximal effect; tags tell the direction and shape of the fitted curve.
Compound,Potency,"activity change, negative = inhibition"
COc1c(Cl)cccc1-c1cn2ccccc2n1,"inconclusive: 25.1 µM [inhibitor, partial curve, poor fit]",
COCCCNC(=O)/C(C#N)=C/c1c(N2CCN(C)CC2)nc2ccccn2c1=O,"inconclusive: 35.5 µM [inhibitor, partial curve, poor fit]",
CC1(C)CC(=O)C2=C(C1)N(c1ccc(C(F)(F)F)cc1)C(=O)CC2c1cccs1 (centres undefined),inactive,
CC(NC(=O)c1ccc(F)cc1)C12CC3CC(CC(C3)C1)C2 (centres undefined),inactive,
COc1ccc(C(=O)/C=C/c2c(F)cccc2F)cc1CC(=O)O,inactive,
COc1ccc(N2Cc3cccc(C(=O)Nc4ccc(C(C)C)cc4)c3C2=O)cc1,"inconclusive: 10 µM [inhibitor, partial curve, poor fit]",
CC(=O)c1ccc(C(=O)N(CCCN(C)C)c2nc3c(C)c(C)ccc3s2)cc1,,inconclusive: -35.5% [inhibitor]
O=C(NCc1nnc2c(-c3nc(C4CC4)no3)cccn12)c1ccc(F)cc1,active: 22.4 µM,
CS(=O)(=O)NCC(c1ccco1)N1CCN(c2ccccc2)CC1 (centres undefined),"inconclusive: 2.51 µM [inhibitor, full curve, poor fit]",
Cc1ccc(N2CCC(N[C@@H]3CC[C@@H](N)C3)CC2)cc1Cl,"inconclusive: 11.2 µM [inhibitor, partial curve]",
COc1ccccc1CNc1cc(-c2ccccc2)nc2nncn12,"inconclusive: 31.6 µM [inhibitor, partial curve, poor fit]",
O=C(N[C@H]1C[C@H]2C(=O)NC[C@@H](CCC(=O)N3CCN(c4ccccc4)CC3)N2C1)c1cccs1,"inconclusive: 17.8 µM [inhibitor, partial curve, poor fit]",
COc1ccc(C)cc1NC(=O)CNC(=O)CNc1ccc(F)c(NC(C)=O)c1,"inconclusive: 25.1 µM [inhibitor, single point]",
Cc1ccc(OCCn2c(CNc3cccc(C)c3)nc3ccccc32)cc1,"inconclusive: 39.8 µM [inhibitor, single point]",
CCCN1CCc2nc(N3CCN(CC)CC3)ncc2C1,"inconclusive: 35.5 µM [inhibitor, single point]",
COCCNCc1ccc(-c2ccc(F)cc2)o1,inactive,
CC1=NS(=O)(=O)NC(C)=C1CCC(=O)Nc1ccc(C)c(C)c1,inactive,
COc1ccc2c(c1)Cc1sc(NC(=O)c3ccccc3Br)nc1-2,"inconclusive: 5.62 µM [inhibitor, partial curve, poor fit]",
O=C(Cc1cccs1)NC1CCCN(c2cc(-c3ccccc3)[nH]n2)C1 (centres undefined),"inconclusive: 17.8 µM [inhibitor, partial curve]",
Cc1cc(CN(C)c2ccc(-c3nc(-c4ccccc4F)no3)cn2)on1,active: 31.6 µM,
CCc1ccc(NC(=O)c2ccc3c(c2)N(Cc2ccc(C)cc2)CCS3)cc1,"inconclusive: 31.6 µM [inhibitor, partial curve, poor fit]",
Cc1[nH]c(I)c(C)c1C=O,"inconclusive: 31.6 µM [inhibitor, single point]",

Compound,Potency,"activity change, negative = inhibition"
Cc1cccc(-c2ocnc2C(=O)NCC(C)c2ccccc2)c1 (centres undefined),inactive,
COc1ccc(CNC(=O)CC[C@H]2CNC(=O)[C@@H]3[C@@H](CCN3Cc3ccc(F)cc3)N2C)cc1,inactive,
CC1CCN(S(=O)(=O)c2ccc(N3CCCCS3(=O)=O)cc2)CC1,"inconclusive: 1 µM [inhibitor, partial curve, poor fit]",
Cn1c(=O)c2c(ncn2Cc2cccc(OC(F)F)c2)n(C)c1=O,inactive,
CC(=O)N1CCN(c2cc(-c3noc([C@@H]4CCCN4Cc4ccccc4C)n3)ccn2)CC1,active: 20 µM,
COc1ccc(-c2cnc3[nH]cc(CC(=O)Nc4ccc(OC)nc4)c3c2)cc1,"inconclusive: 15.8 µM [inhibitor, partial curve, poor fit]",
COCCNC(=O)CN1CCN(C(C(=O)O)c2c(C)[nH]c3ccccc23)CC1 (centres undefined),inactive,
CN(C)CCNc1oc(-c2ccc(S(=O)(=O)N(C)C)cc2)nc1C#N,"inconclusive: 22.4 µM [inhibitor, partial curve, poor fit]",
O=S(=O)(c1cccs1)N1CCc2nc(C3CC3)nc(-c3ccc(Cl)cc3)c2C1,inactive,
CC(C)c1ccc(NC(=O)c2ccc(N(C)C)cc2)cc1,"inconclusive: 39.8 µM [inhibitor, single point]",
Cc1ccc(-c2nnc([C@H]3CCN(C(C)C)C3)o2)cc1,active: 31.6 µM,
CCOc1ccc(-c2cc(C(=O)NCCCN3CCN(C)CC3)c3ccccc3n2)cc1,"inconclusive: 28.2 µM [inhibitor, partial curve, poor fit]",
COc1cc(C2CC(=O)Nc3sc(C(=O)Nc4ccccc4)c(C)c32)ccc1O (centres undefined),"inconclusive: 25.1 µM [inhibitor, partial curve, poor fit]",
C/C(=C/C(=O)C(F)(F)F)N1CCN(c2ccccn2)CC1,inactive,
Cc1ccc(-c2ccc3nnc(CNC(=O)COc4ccccc4)n3n2)cc1C,active: 28.2 µM,
Cc1cc2nc(/C(C#N)=C\c3ccc(OCC(C)C)cc3)[nH]c2cc1C,inactive,
COc1ccc(-c2onc(C)c2C(=O)N(C)Cc2cc(OC)c(OC)c(OC)c2)cc1,inactive,
COc1ccccc1OCC(=O)Nc1ccc2c(=O)c3cccc(Cl)c3oc2c1,"inconclusive: 28.2 µM [inhibitor, single point]",
CCCNC(=O)C(NC(=O)c1ccc(C)cc1)C1CCN(C(=O)c2ccc3c(c2)OCO3)CC1 (centres undefined),"inconclusive: 31.6 µM [inhibitor, partial curve, poor fit]",
CCc1ccc(NC(=O)Cn2c(=O)c(-c3ccccc3NC(C)=O)nc3ccccc32)cc1,inactive,
O=S(=O)(/C(=C/c1ccc2ccccc2c1)c1nc2ccccc2[nH]1)c1ccccc1,"inconclusive: 25.1 µM [inhibitor, single point]",
CC(C)Oc1ccc(CNC(=O)C(C)C2CCOCC2)cc1 (centres undefined),"inconclusive: 39.8 µM [inhibitor, single point]",
